# Measurements taken from article PMC9911399, “Two distinct binding modes provide the RNA-binding protein RbFox with extraordinary sequence specificity”.
# Where a chain is given by its changes, count along the chain named. Some of the results follow.
# T1: RBFOX1 RRM RbFoxmut (Fox-RRM*) (Homo sapiens, UniProt Q9NWB1 109-208, R118D;E147R;N151S;E152T)
# T1 sequence: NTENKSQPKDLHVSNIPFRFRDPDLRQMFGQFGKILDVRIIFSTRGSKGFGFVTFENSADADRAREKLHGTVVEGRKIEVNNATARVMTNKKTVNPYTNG
# B1: UUCGUCU (DNA:RNA)
# RNA: GGGAGACCGGAAUUCAGAUUGUCCUUCGUCUUUAAAUCCCGUCGUAGCCACCA
# DNA 1: CAATCTGAATTCCGGTCTCCC
# DNA 2: TGGTGGCTACGACGGGATT
# B2: GCCACAC (DNA:RNA)
# RNA: B1 RNA with U25G, U26C, G28A, U29C, C30A, U31C
# DNA 1: CAATCTGAATTCCGGTCTCCC
# DNA 2: TGGTGGCTACGACGGGATT
# B3: CAUCGAU (DNA:RNA)
# RNA: B1 RNA with U25C, U26A, C27U, G28C, U29G, C30A
# DNA 1: CAATCTGAATTCCGGTCTCCC
# DNA 2: TGGTGGCTACGACGGGATT
# B4: AUCGGCU (DNA:RNA)
# RNA: B1 RNA with U25A, U29G
# DNA 1: CAATCTGAATTCCGGTCTCCC
# DNA 2: TGGTGGCTACGACGGGATT
# B5: UUCUGAC (DNA:RNA)
# RNA: B1 RNA with G28U, U29G, C30A, U31C
# DNA 1: CAATCTGAATTCCGGTCTCCC
# DNA 2: TGGTGGCTACGACGGGATT
# B6: CACCUCC (DNA:RNA)
# RNA: B1 RNA with U25C, U26A, G28C, U31C
# DNA 1: CAATCTGAATTCCGGTCTCCC
# DNA 2: TGGTGGCTACGACGGGATT
# B7: CUCGCGG (DNA:RNA)
# RNA: B1 RNA with U25C, U29C, C30G, U31G
# DNA 1: CAATCTGAATTCCGGTCTCCC
# DNA 2: TGGTGGCTACGACGGGATT
# B8: CUCGAUA (DNA:RNA)
# RNA: B1 RNA with U25C, U29A, C30U, U31A
# DNA 1: CAATCTGAATTCCGGTCTCCC
# DNA 2: TGGTGGCTACGACGGGATT
# B9: AACGUAU (DNA:RNA)
# RNA: B1 RNA with U25A, U26A, C30A
# DNA 1: CAATCTGAATTCCGGTCTCCC
# DNA 2: TGGTGGCTACGACGGGATT
# B10: AGGUUAG (DNA:RNA)
# RNA: B1 RNA with U25A, U26G, C27G, G28U, C30A, U31G
# DNA 1: CAATCTGAATTCCGGTCTCCC
# DNA 2: TGGTGGCTACGACGGGATT
# B11: AGUUCCC (DNA:RNA)
# RNA: B1 RNA with U25A, U26G, C27U, G28U, U29C, U31C
# DNA 1: CAATCTGAATTCCGGTCTCCC
# DNA 2: TGGTGGCTACGACGGGATT
# B12: GCGUAGC (DNA:RNA)
# RNA: GGGAGACCGGAAUUCAGAUUGUCCGCGUAGCUUAAAUCCCGUCGUAGCCACCA
# DNA 1: CAATCTGAATTCCGGTCTCCC
# DNA 2: TGGTGGCTACGACGGGATT
# B13: GUUUCAU (DNA:RNA)
# RNA: B12 RNA with C26U, G27U, A29C, G30A, C31U
# DNA 1: CAATCTGAATTCCGGTCTCCC
# DNA 2: TGGTGGCTACGACGGGATT
# B14: AUUGUGU (DNA:RNA)
# RNA: B1 RNA with U25A, C27U, C30G
# DNA 1: CAATCTGAATTCCGGTCTCCC
# DNA 2: TGGTGGCTACGACGGGATT
# B15: UUCUGGC (DNA:RNA)
# RNA: B12 RNA with G25U, C26U, G27C, A29G
# DNA 1: CAATCTGAATTCCGGTCTCCC
# DNA 2: TGGTGGCTACGACGGGATT
# B16: ACCCGCG (DNA:RNA)
# RNA: B1 RNA with U25A, U26C, G28C, U29G, U31G
# DNA 1: CAATCTGAATTCCGGTCTCCC
# DNA 2: TGGTGGCTACGACGGGATT
# B17: GGUUCUC (DNA:RNA)
# RNA: B12 RNA with C26G, G27U, A29C, G30U
# DNA 1: CAATCTGAATTCCGGTCTCCC
# DNA 2: TGGTGGCTACGACGGGATT
# B18: AGCAAAU (DNA:RNA)
# RNA: B1 RNA with U25A, U26G, G28A, U29A, C30A
# DNA 1: CAATCTGAATTCCGGTCTCCC
# DNA 2: TGGTGGCTACGACGGGATT
# B19: GAAACUG (DNA:RNA)
# RNA: B12 RNA with C26A, G27A, U28A, A29C, G30U, C31G
# DNA 1: CAATCTGAATTCCGGTCTCCC
# DNA 2: TGGTGGCTACGACGGGATT
# B20: CACCCAA (DNA:RNA)
# RNA: B1 RNA with U25C, U26A, G28C, U29C, C30A, U31A
# DNA 1: CAATCTGAATTCCGGTCTCCC
# DNA 2: TGGTGGCTACGACGGGATT
# B21: UAUGCGA (DNA:RNA)
# RNA: B1 RNA with U26A, C27U, U29C, C30G, U31A
# DNA 1: CAATCTGAATTCCGGTCTCCC
# DNA 2: TGGTGGCTACGACGGGATT
# B22: CUCUGUC (DNA:RNA)
# RNA: B12 RNA with G25C, C26U, G27C, A29G, G30U
# DNA 1: CAATCTGAATTCCGGTCTCCC
# DNA 2: TGGTGGCTACGACGGGATT
# B23: UACAGGG (DNA:RNA)
# RNA: B1 RNA with U26A, G28A, U29G, C30G, U31G
# DNA 1: CAATCTGAATTCCGGTCTCCC
# DNA 2: TGGTGGCTACGACGGGATT
# B24: UUUAAUG (DNA:RNA)
# RNA: B1 RNA with C27U, G28A, U29A, C30U, U31G
# DNA 1: CAATCTGAATTCCGGTCTCCC
# DNA 2: TGGTGGCTACGACGGGATT
# B25: UAAGAAC (DNA:RNA)
# RNA: B12 RNA with G25U, C26A, G27A, U28G, G30A
# DNA 1: CAATCTGAATTCCGGTCTCCC
# DNA 2: TGGTGGCTACGACGGGATT
# B26: GCAUGCU (DNA:RNA)
# RNA: B12 RNA with G27A, A29G, G30C, C31U
# DNA 1: CAATCTGAATTCCGGTCTCCC
# DNA 2: TGGTGGCTACGACGGGATT
# B27: CUUAUGC (DNA:RNA)
# RNA: B12 RNA with G25C, C26U, G27U, U28A, A29U
# DNA 1: CAATCTGAATTCCGGTCTCCC
# DNA 2: TGGTGGCTACGACGGGATT
# B28: GACGACG (DNA:RNA)
# RNA: B1 RNA with U25G, U26A, U29A, U31G
# DNA 1: CAATCTGAATTCCGGTCTCCC
# DNA 2: TGGTGGCTACGACGGGATT
# B29: GCGUAUG (DNA:RNA)
# RNA: B12 RNA with G30U, C31G
# DNA 1: CAATCTGAATTCCGGTCTCCC
# DNA 2: TGGTGGCTACGACGGGATT
# B30: UACUCCG (DNA:RNA)
# RNA: B1 RNA with U26A, G28U, U29C, U31G
# DNA 1: CAATCTGAATTCCGGTCTCCC
# DNA 2: TGGTGGCTACGACGGGATT
# B31: CAUCCGC (DNA:RNA)
# RNA: B12 RNA with G25C, C26A, G27U, U28C, A29C
# DNA 1: CAATCTGAATTCCGGTCTCCC
# DNA 2: TGGTGGCTACGACGGGATT
# Molecular target: T1, RBFOX1 RRM RbFoxmut (Fox-RRM*)
# Experiment: EMSA; HiTS-Eq, 1 nM pool, 10 min; buffer printed only for the single-RNA assays: 10 mM Tris pH 7.5, 150 mM NaCl, 3.4 mM EDTA, 0.001% NP-40, 30 C
# Details: tags: His6 N-terminal (pET28a); label: 5' 32P
# Outline: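 A pool of RNA with 7 randomized nucleotides, 5′-radiolabelled and with DNA-annealed flanks, was equilibrated at 1 nM for 10 min in 50 µL with purified RbFox RRM, wild type or mutant, across increasing protein concentrations. Free RNA was separated by 8% native PAGE, excised, reverse-transcribed, barcoded by PCR and sequenced. Relative association constants were obtained from read-count changes of each RNA species versus the control reaction and normalised to the cognate motif.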
row,Binder,binding signal
1,B1,0.0697 KA relative to UGCAUGU
2,B2,0.0681 KA relative to UGCAUGU
3,B3,0.0857 KA relative to UGCAUGU
4,B4,0.104 KA relative to UGCAUGU
5,B5,0.094 KA relative to UGCAUGU
6,B6,0.0474 KA relative to UGCAUGU
7,B7,0.0781 KA relative to UGCAUGU
8,B8,0.131 KA relative to UGCAUGU
9,B9,0.106 KA relative to UGCAUGU
10,B10,0.155 KA relative to UGCAUGU
11,B11,0.0549 KA relative to UGCAUGU
12,B12,0.0936 KA relative to UGCAUGU
13,B13,0.132 KA relative to UGCAUGU
14,B14,0.189 KA relative to UGCAUGU
15,B15,0.127 KA relative to UGCAUGU
16,B16,0.0757 KA relative to UGCAUGU

row,Binder,binding signal
1,B17,0.0759 KA relative to UGCAUGU
2,B18,0.0838 KA relative to UGCAUGU
3,B19,0.0718 KA relative to UGCAUGU
4,B20,0.0838 KA relative to UGCAUGU
5,B21,0.0552 KA relative to UGCAUGU
6,B22,0.261 KA relative to UGCAUGU
7,B23,0.0761 KA relative to UGCAUGU
8,B24,0.125 KA relative to UGCAUGU
9,B25,0.0462 KA relative to UGCAUGU
10,B26,0.736 KA relative to UGCAUGU
11,B27,0.122 KA relative to UGCAUGU
12,B28,0.0915 KA relative to UGCAUGU
13,B29,0.876 KA relative to UGCAUGU
14,B30,0.0523 KA relative to UGCAUGU
15,B31,0.0873 KA relative to UGCAUGU
